This note sets out measurements from the supplement of paper PMC9174493.

The test system of experiment [1] is A549-Dual. The experiment can be described thus: NF-kB reporter (SEAP) activity, viability-corrected, relative to vehicle (fold change vs vehicle); higher = more activation of STING-IRF / NF-kB immune response reporter. Conditions: 10 µM.
Experiment [2] relates to A549-Dual. Nature of the experiment: ISRE reporter (Lucia luciferase) activity, viability-corrected, relative to vehicle (fold change vs vehicle); higher = more activation of STING-IRF / NF-kB immune response reporter. Conditions: 10 µM.

This is one part of the list. Single values of this set are uncertain. Values with irradiation are relative to irradiated vehicle.
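Throughout, for NF-kB reporter (SEAP) activity, viability-corrected, relative to vehicle: viability correction based on the alamar blue assay, with concentrations leaving 10% survival or less dropped.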

Take `O=C(O)/C=C/C(=O)O` [Fumaric acid]: the values for the NF-kB reporter in the experiment on A549-Dual [1] (irradiation: 8 Gy/4 fr) and with A549-Dual [1] (irradiation: none) were 0.978 and 0.848, respectively. Besides, the ISRE reporter is 0.893 in the experiment on A549-Dual [2] (irradiation: 8 Gy/4 fr) and 0.562 in the experiment on A549-Dual [2] (irradiation: none).
With `CCCNC1CCc2nc(N)sc2C1.Cl.Cl` (centres undefined) [Pramipexole dihydrochloride], the NF-kB reporter with A549-Dual [1] (irradiation: 8 Gy/4 fr) turned out to be 0.925; in the experiment on A549-Dual [1] (irradiation: none), 1.15. Also, the figures for the ISRE reporter with A549-Dual [2] (irradiation: 8 Gy/4 fr) and in the experiment on A549-Dual [2] (irradiation: none) were 1.11 and 0.998, respectively.
Turning to `O=c1[nH]c(=O)n(C2CC(O)C(CO)O2)cc1/C=C/Br` (centres undefined) [Brivudine], the NF-kB reporter in the experiment with A549-Dual [1] (irradiation: 8 Gy/4 fr) was 0.808; with A549-Dual [1] (irradiation: none) it was 1.09. Further, the ISRE reporter with A549-Dual [2] (irradiation: 8 Gy/4 fr) was found to be 0.783; with A549-Dual [2] (irradiation: none), 0.835.
Turning to `CC1COc2c(C3(N)CC3)c(F)cc3c(=O)c(C(=O)O)cn1c23.CS(=O)(=O)O` (centres undefined) [Pazufloxacin mesylate], the NF-kB reporter with A549-Dual [1] (irradiation: 8 Gy/4 fr) came to 0.764; in the experiment on A549-Dual [1] (irradiation: none), 0.953. Further, the ISRE reporter was found to be 0.769 with A549-Dual [2] (irradiation: 8 Gy/4 fr) and 0.709 in the experiment on A549-Dual [2] (irradiation: none).
As for `C=C1c2c(Cl)ccc(O)c2C(=O)C2=C(O)C3(O)C(=O)C(C(N)=O)=C(O)C(N(C)C)C3C(O)C12.O=C(O)c1cc(S(=O)(=O)O)ccc1O` (centres undefined) [Meclocycline Sulfosalicylate], the figures for the NF-kB reporter in the experiment on A549-Dual [1] (irradiation: 8 Gy/4 fr) and in the experiment on A549-Dual [1] (irradiation: none) were 0.625 and 0.921, respectively. The ISRE reporter in the experiment with A549-Dual [2] (irradiation: 8 Gy/4 fr) is 0.328; in the experiment with A549-Dual [2] (irradiation: none), 0.673.
`CC(CCC(=O)O)C1CCC2C3C(=O)CC4CC(=O)CCC4(C)C3CC(=O)C12C` (centres undefined) [Dehydrocholic acid]: the figures for the NF-kB reporter with A549-Dual [1] (irradiation: 8 Gy/4 fr) and in the experiment on A549-Dual [1] (irradiation: none) were 0.91 and 0.984, respectively. For the same compound, the ISRE reporter was determined as 0.915 in the experiment on A549-Dual [2] (irradiation: 8 Gy/4 fr) and 0.771 with A549-Dual [2] (irradiation: none).
As for `CC(=O)N1CCN(c2ccc(OCC3COC(Cn4ccnc4)(c4ccc(Cl)cc4Cl)O3)cc2)CC1` (centres undefined) [Ketoconazole], the NF-kB reporter in the experiment with A549-Dual [1] (irradiation: 8 Gy/4 fr) amounted to 0.778; in the experiment on A549-Dual [1] (irradiation: none), 0.814. The ISRE reporter stood at 0.699 in the experiment on A549-Dual [2] (irradiation: 8 Gy/4 fr) and 0.727 in the experiment with A549-Dual [2] (irradiation: none).
On to `OCC(O)C(O)C(OC1OC(CO)C(O)C(O)C1O)C(O)CO` (centres undefined) [Maltitol], for which the NF-kB reporter in the experiment with A549-Dual [1] (irradiation: 8 Gy/4 fr) amounted to 0.892; in the experiment with A549-Dual [1] (irradiation: none) it was 0.69. In addition, the ISRE reporter in the experiment on A549-Dual [2] (irradiation: 8 Gy/4 fr) came to 0.813; with A549-Dual [2] (irradiation: none), 0.57.
In the same order, the values of `COC1C(O)CC(=O)OC(C)C/C=C/C=C/C(OC2CCC(N(C)C)C(C)O2)C(C)CC(CC=O)C1OC1OC(C)C(OC2CC(C)(O)C(O)C(C)O2)C(N(C)C)C1O` (centres undefined) [Spiramycin] are 0.948, 0.927, 0.941 and 0.847.
In the same order, the values of `C#CCC(Cc1cnc2nc(N)nc(N)c2n1)c1ccc(C(=O)NC(CCC(=O)O)C(=O)O)cc1` (centres undefined) [Pralatrexate] are 0.722, 2.1, 0.282 and 1.75.
The corresponding values for `O=C(O)c1cccc(-c2noc(-c3ccccc3F)n2)c1` [Ataluren (PTC124)] are 0.711, 0.491, 0.704 and 0.359.
For `CC(CCC(=O)O)C1CCC2C3C(O)CC4CC(O)CCC4(C)C3CCC12C` (centres undefined) [Ursodiol], the NF-kB reporter in the experiment with A549-Dual [1] (irradiation: 8 Gy/4 fr) worked out at 0.808; in the experiment with A549-Dual [1] (irradiation: none), 0.835. For the same compound, the figures for the ISRE reporter in the experiment with A549-Dual [2] (irradiation: 8 Gy/4 fr) and in the experiment on A549-Dual [2] (irradiation: none) were 0.708 and 0.731, respectively.
As for `CC(C)(Oc1ccc(C2CC2(Cl)Cl)cc1)C(=O)O` (centres undefined) [Ciprofibrate], the NF-kB reporter in the experiment on A549-Dual [1] (irradiation: 8 Gy/4 fr) came to 1.05; with A549-Dual [1] (irradiation: none), 0.827. The ISRE reporter amounted to 0.931 in the experiment on A549-Dual [2] (irradiation: 8 Gy/4 fr) and 0.723 in the experiment on A549-Dual [2] (irradiation: none).
For the compound `Oc1c(I)cc(Cl)c2cccnc12` [Clioquinol], the NF-kB reporter with A549-Dual [1] (irradiation: 8 Gy/4 fr) is 0.686; in the experiment on A549-Dual [1] (irradiation: none), 0.826. Moreover, the ISRE reporter amounted to 0.292 with A549-Dual [2] (irradiation: 8 Gy/4 fr) and 0.306 in the experiment with A549-Dual [2] (irradiation: none).
Take `CCNC1CC(C)S(=O)(=O)c2sc(S(N)(=O)=O)cc21.Cl` (centres undefined) [Dorzolamide HCl]: the NF-kB reporter came to 0.958 in the experiment with A549-Dual [1] (irradiation: 8 Gy/4 fr) and 0.877 with A549-Dual [1] (irradiation: none). The ISRE reporter in the experiment on A549-Dual [2] (irradiation: 8 Gy/4 fr) turned out to be 0.892; with A549-Dual [2] (irradiation: none), 0.769.
Regarding `O=C1Nc2ccccc2C1=O` [Isatin], the values for the NF-kB reporter with A549-Dual [1] (irradiation: 8 Gy/4 fr) and in the experiment with A549-Dual [1] (irradiation: none) were 0.691 and 0.726, respectively. For the same compound, the ISRE reporter came to 0.55 in the experiment with A549-Dual [2] (irradiation: 8 Gy/4 fr) and 0.497 in the experiment on A549-Dual [2] (irradiation: none).
Take `NC(=O)CCC(N)C(=O)O` (racemic) [DL-Glutamine]: the values for the NF-kB reporter with A549-Dual [1] (irradiation: 8 Gy/4 fr) and with A549-Dual [1] (irradiation: none) were 1.14 and 0.837, respectively. Besides, the ISRE reporter was determined as 1.07 in the experiment with A549-Dual [2] (irradiation: 8 Gy/4 fr) and 0.73 with A549-Dual [2] (irradiation: none).
With `CC1(C)CCCC(C)(C2CCC3(C)C2C(O)CC2C4(C)CCC(O)C(C)(C)C4C(O)CC23C)O1` (centres undefined) [Panaxatriol], the NF-kB reporter is 0.526 in the experiment on A549-Dual [1] (irradiation: 8 Gy/4 fr) and 0.881 in the experiment with A549-Dual [1] (irradiation: none). Also, the ISRE reporter in the experiment with A549-Dual [2] (irradiation: 8 Gy/4 fr) stood at 0.488; with A549-Dual [2] (irradiation: none) it was 0.573.
Turning to `CC1CCC(C(C)C)C(O)C1` (racemic) [DL-Menthol], the NF-kB reporter in the experiment with A549-Dual [1] (irradiation: 8 Gy/4 fr) is 1.11; in the experiment with A549-Dual [1] (irradiation: none), 0.686. The ISRE reporter in the experiment on A549-Dual [2] (irradiation: 8 Gy/4 fr) stood at 1.18; in the experiment with A549-Dual [2] (irradiation: none), 0.806.
As for `C[N+](C)(C)C[C@H](O)CC(=O)O.[Cl-]` [L-Carnitine hydrochloride], the values for the NF-kB reporter with A549-Dual [1] (irradiation: 8 Gy/4 fr) and in the experiment on A549-Dual [1] (irradiation: none) were 0.74 and 0.832, respectively. The ISRE reporter in the experiment on A549-Dual [2] (irradiation: 8 Gy/4 fr) is 0.748; in the experiment with A549-Dual [2] (irradiation: none), 0.658.
On to `CC1OC(OCC2OC(Oc3c(-c4ccc(O)c(O)c4)oc4cc(O)cc(O)c4c3=O)C(O)C(O)C2O)C(O)C(O)C1O` (centres undefined) [Rutin], for which the NF-kB reporter is 0.799 in the experiment with A549-Dual [1] (irradiation: 8 Gy/4 fr) and 1.08 in the experiment on A549-Dual [1] (irradiation: none). The ISRE reporter in the experiment with A549-Dual [2] (irradiation: 8 Gy/4 fr) came to 0.774; in the experiment on A549-Dual [2] (irradiation: none) it was 0.85.
With `Cl.Cl.Cl.Cl.NCCCNCCCCNCCCN` [Spermine Tetrahydrochloride], the NF-kB reporter with A549-Dual [1] (irradiation: 8 Gy/4 fr) was 0.855; with A549-Dual [1] (irradiation: none) it was 0.684. Further, the ISRE reporter with A549-Dual [2] (irradiation: 8 Gy/4 fr) was 0.879; in the experiment with A549-Dual [2] (irradiation: none) it was 0.585.
Regarding `CC(C)Oc1ccc2c(=O)c(-c3ccccc3)coc2c1` [Ipriflavone (Osteofix)], the NF-kB reporter in the experiment with A549-Dual [1] (irradiation: 8 Gy/4 fr) came to 0.832; in the experiment with A549-Dual [1] (irradiation: none) it was 0.83. The ISRE reporter with A549-Dual [2] (irradiation: 8 Gy/4 fr) is 0.835; with A549-Dual [2] (irradiation: none) it was 0.941.
Take `O=C(c1ccccc1)c1ccc2n1CCC2C(=O)O` (centres undefined) [Ketorolac]: the NF-kB reporter was found to be 1.01 with A549-Dual [1] (irradiation: 8 Gy/4 fr) and 0.69 in the experiment with A549-Dual [1] (irradiation: none). Besides, the figures for the ISRE reporter in the experiment on A549-Dual [2] (irradiation: 8 Gy/4 fr) and in the experiment with A549-Dual [2] (irradiation: none) were 0.991 and 0.571, respectively.
On to `O=C(OCc1ccccc1)c1ccccc1` [Benzyl benzoate], for which the NF-kB reporter in the experiment with A549-Dual [1] (irradiation: 8 Gy/4 fr) was 0.881; with A549-Dual [1] (irradiation: none) it was 0.921. Also, the ISRE reporter with A549-Dual [2] (irradiation: 8 Gy/4 fr) turned out to be 0.763; in the experiment with A549-Dual [2] (irradiation: none) it was 0.736.
As to `NC(CC(=O)N1CCn2c(nnc2C(F)(F)F)C1)Cc1cc(F)c(F)cc1F.O.O=P(O)(O)O` (centres undefined) [Sitagliptin phosphate monohydrate], the NF-kB reporter worked out at 0.85 with A549-Dual [1] (irradiation: 8 Gy/4 fr) and 0.848 in the experiment on A549-Dual [1] (irradiation: none). Moreover, the ISRE reporter in the experiment on A549-Dual [2] (irradiation: 8 Gy/4 fr) was 0.851; in the experiment with A549-Dual [2] (irradiation: none) it was 0.886.
